Reference: the RNAGym collection of RNA variant scans (doi:10.1073/pnas.2313332121)
Variants at the background level are over-represented here.

B1: TPR 5TU (parent)
chain: GGAUCUUCUCGAUCUAACAAAAAAGACAAAUCUGCCACAAAGCUUGAGAGCAUCUUCGGAUGCAGAGGCGGCAGCCUUCGGUGGCGCGAUAGCGCCAACGUUCUCAACUAUGACACGCAAAACGCGUGCUCCGUUGAAUGGAGUUUAUCAUG

Variants of: B1
Assay: polymerase ribozyme fitness, log enrichment relative to wild type (log ratio); higher = more active; in vitro selection for triplet polymerase activity
Procedure, shortened: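 Mutant libraries of each subunit of a heterodimeric triplet polymerase ribozyme were built by PCR and transcribed. Each library went through one round of in vitro selection in triplicate: annealing with biotinylated primer, partner subunit and triplets, frozen incubation at −7 °C, gel excision of extended constructs, streptavidin-bead capture and RT-PCR. Input and output libraries were Illumina-sequenced; only genotypes with ≥10 input reads and ≥1 read per output were kept. Fitness is log2(genotype enrichment/wild-type enrichment), using inverse-variance-weighted replicate averages.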

Variant	polymerase ribozyme fitness (log ratio)
U78C C85U A113C U135G	≤ -4.2
C76G U101G A120U A150U	≤ -4.2
C75G C85A	≤ -4.2
C76U C79G A89C C96U A97C A115G	≤ -4.2
U77A G84U A91C G94C C99G G141C	≤ -4.2
G81A A120U G128A	-3.29
C75G G80C C93U A120C A147U	≤ -4.2
U82A G86A C95A U111A G126A G140C	≤ -4.2
G80C C116U C125G A142U	≤ -4.2
U82C U104G G117U	0.147
C79U C93U G141A	≤ -4.2
U82A C85A C93U	≤ -4.2
C79U G100A A115G G128C A137C G140U	≤ -4.2
C79U A91U C103G U135A	≤ -4.2
U77C C85U C93A C108G G143A	≤ -4.2
U82C C85U A120G C129A G136A C149A	≤ -4.2
G80U C116G A119C A150C	≤ -4.2
U78C C93G C103U A120G	≤ -4.2
G81A G92A C108G	≤ -4.2
C75U G83C	-1.13
G81C C93A C96G C118U U127C U145C	≤ -4.2
U77C G84C C114A	≤ -4.2
C79A G84A A120U U127C U144C	≤ -4.2
U77A G83U U144C	≤ -4.2

Variant	polymerase ribozyme fitness (log ratio)
C76A A91U C95U A107G G126A G133A	≤ -4.2
C76G G92U	≤ -4.2
C76G G92A	≤ -4.2
G80A C108A G140A	≤ -4.2
G81C A119U G128U	-2.99
C76A G80C C105U U134G	≤ -4.2
G81U G94U U104G U130A G136U	≤ -4.2
G81U C87A A107G U144G	≤ -4.2
C75G G84U	≤ -4.2
C79G G88U C95A C96A C116A	≤ -4.2
C76G U134G	≤ -4.2
U82A G126A G133C	-1.01
G81A C87U	-1.73
U77C C85A U102G C114A C125A U127A G136A	≤ -4.2
C75U G136A	1.26
U77G G94A	≤ -4.2
C75U G92C	-1.11
C76A A98U G136A U145A	0.194
U77A G94C A98U	≤ -4.2
C76G A106G G133A	≤ -4.2
C79G G94A U111G	≤ -4.2
C79U C93G	≤ -4.2
U77C U151C	≤ -4.2
U77A G83C U104C C123U U145C	≤ -4.2

Variant	polymerase ribozyme fitness (log ratio)
G80A	-0.0737
G80C	-3.5
G80U	-0.409
U82G C96A C103U G124A U135G A138U	≤ -4.2
U78A G83A C114U A137C	≤ -4.2
C75U C149A	≤ -4.2
C75A G86A A97G G136U	≤ -4.2
U82C G84U A98G U148G	≤ -4.2
C75G G92U	-2.52
G81C G117C A138G	-4.02
U77A C87U	≤ -4.2
C76U C99G	-0.789
U78G C96U A107U G141C A150G	≤ -4.2
G80C C85U C108U U109G A150U	≤ -4.2
G81U A91C	≤ -4.2
C76U U77G G81U G92A C123A	≤ -4.2
C76A C87G U90A C103A U134A	≤ -4.2
C79U U109G C114U A115G G124C G133C	≤ -4.2
C75G U90A	≤ -4.2
U77A G92A G124U	≤ -4.2
G81A G88C C96U U102G C114U U146G	≤ -4.2
C75A U90G U101G	≤ -4.2
C79U C87A A98G	≤ -4.2
C76G U144G U146A C149U	≤ -4.2

Variant	polymerase ribozyme fitness (log ratio)
C79A C87G A113G	≤ -4.2
C79G U82A C87U C103A G133U	≤ -4.2
C79A G84U	≤ -4.2
C79G U82A C87U C103A	≤ -4.2
C76G C79A A89U G92A A137U G140U A142G G152U	≤ -4.2
U78A G81C G94C	≤ -4.2
U77C C79U C132A	≤ -4.2
C75G U82A G84U U101A U139A G141C G143C	≤ -4.2
C79A C96U C108U	≤ -4.2
C79A A97G A150G	≤ -4.2
U82G C87G	≤ -4.2
C76G U90C	≤ -4.2
U77G C95U	≤ -4.2
C76G G83C G92U C95G A113C A121U A137C	≤ -4.2
G81C C87A C99G	≤ -4.2
C76U U101A	-1.35
U78A G143A	≤ -4.2
U82C G112U G152A	-3.59
C79A C96U A97G C116G A138G	≤ -4.2
U77C G83C	≤ -4.2
C76A C85G C87U G141C A142C	≤ -4.2
C76A U78C C87A G88C A120U	≤ -4.2
U77G A91U A97U	≤ -4.2
G81A C85G G141U A150G	≤ -4.2

Variant	polymerase ribozyme fitness (log ratio)
G80C A138G	≤ -4.2
C79G C85G	≤ -4.2
G80A A91C A120G	≤ -4.2
G80U C114U U144C	-3.95
G81A G86C A119U A142C	≤ -4.2
C79U C85G A138G	≤ -4.2
U78C G92U C114A	≤ -4.2
C76U G88C	≤ -4.2
C76G U151G	≤ -4.2
C79U G100A G141U G143A	≤ -4.2
U78A C93U	≤ -4.2
C76G G86U U109G G141U	≤ -4.2
U78G A97G U104A	≤ -4.2
G81C G83U G133A	-3.88
C76G G80A C87A A119U	≤ -4.2
G81U G86U A98C C99A A107C U144A	≤ -4.2
C76U C93G G124A C132A	≤ -4.2
C75U A107G A142G	≤ -4.2
C76G U104G	≤ -4.2
U77G U78G	≤ -4.2
G80A G86C G124A G140C	≤ -4.2
C75G A113U	≤ -4.2
C75U C85U A106C A122C U135A U145A	-3.69
U77C C95U G141A	≤ -4.2

Variant	polymerase ribozyme fitness (log ratio)
C79A C103A A107C	≤ -4.2
C75U G92C U109A U146G	-3.93
C76A A142U A147G	≤ -4.2
C76A A91C G128C G143A	≤ -4.2
U78G A98U A142U	≤ -4.2
C75A G92A C103U A119U U134G G141A	≤ -4.2
U78A C79U U82A G94U C96G G126A G141U	≤ -4.2
U78G C99U	≤ -4.2
U78A G88C U104C	≤ -4.2
C79G A89C A110G	≤ -4.2
C75G C85U U102G A119U U127C U135G A138U	≤ -4.2
C76A C85A A121G	-2.03
U78G G117U G133C	≤ -4.2
C76G C93G A97G	≤ -4.2
C79A C85A C116G	≤ -4.2
U77G C103A C105G A120C	≤ -4.2
U78G G86U	≤ -4.2
U82C C96A	-0.964
G81A C87U C99A A137C U144C	≤ -4.2
U78G C85U U104C A107C C149U	≤ -4.2
G80A C85U C103G G117U G124U A142G	≤ -4.2
G81U A91C A97C U148A	≤ -4.2
U77G U148A	≤ -4.2
U78C A107U A119U A147C	≤ -4.2

Variant	polymerase ribozyme fitness (log ratio)
C79G C87A C125U G136C A150G	≤ -4.2
U77A G92U C99G	-4.06
C79U G80A C99G U135G	≤ -4.2
C79U C87U U90C C105U	≤ -4.2
C79A G92U G100U C131A A137C U148G	≤ -4.2
C75G G86A C87A G92A U146G G152C	≤ -4.2
U82G C85U U135G	≤ -4.2
C76G C85G G92A A120C C129U	≤ -4.2
C79U A89C	-3.38
U77G A89C U104C	≤ -4.2
U82A C93U U145G	-2.53
C76A C93G C132A	≤ -4.2
C76G A91U G117U	≤ -4.2
G81C C116A G124U A142C	≤ -4.2
C79G G83A A89U C95U C96U C99G G141A	≤ -4.2
G81C A120G	-0.127
G80C C93U A106G U146A	≤ -4.2
C76U C87G G140U	≤ -4.2
U77G A113U	≤ -4.2
U82C A107U A115U A120U U145C	≤ -4.2
U78C C79G G83C A97U A121U	≤ -4.2
C79U C93A A98G C103U	≤ -4.2
C79U C85G C95A	≤ -4.2
